No constants are given. Whether binding was seen depends on the method and setting. Some entries that bind do so weakly or less than the wild type. Where a sequence is shown, tags or fusion partners need not be part of it.
Tests used:
[1] = molecular target: T1, Ctf19_D-RWD-Mcm21_D-RWD (K. lactis, purified) (Kluyveromyces lactis) (UniProt Q6CRN7+Q6CVQ9); assay: SEC; analytical SEC of purified K. lactis samples alone and combined, Superdex 200 10/300, 4°C; fractions on SDS-PAGE; both purified
T1 sequence 1: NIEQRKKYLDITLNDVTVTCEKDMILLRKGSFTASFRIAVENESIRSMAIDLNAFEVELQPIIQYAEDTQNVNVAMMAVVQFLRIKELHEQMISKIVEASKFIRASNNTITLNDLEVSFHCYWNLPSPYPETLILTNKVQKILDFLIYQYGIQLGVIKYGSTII
T1 sequence 2: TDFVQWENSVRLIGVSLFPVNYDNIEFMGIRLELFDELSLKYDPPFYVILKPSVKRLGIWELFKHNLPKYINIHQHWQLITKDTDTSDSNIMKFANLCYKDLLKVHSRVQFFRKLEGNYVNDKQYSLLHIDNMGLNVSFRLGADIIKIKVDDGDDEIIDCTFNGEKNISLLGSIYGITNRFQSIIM

[2] = molecular target: T1, Ctf19_D-RWD-Mcm21_D-RWD (K. lactis, purified) (Kluyveromyces lactis); assay: SEC; Superdex 200 HiLoad 10/600 prep grade column (Appendix Fig S7B); both purified
[3] = molecular target: T2, Mcm21 D-RWD domain (K. lactis Mcm21 residues 108-293) (Kluyveromyces lactis) (UniProt Q6CVQ9); assay: crystal structure; Ctf19_107-270-Mcm21_108-293-Okp1_295-360; 35% (v/v) glycerol ethoxylate, 200 mM Li-citrate, 20°C; space group P22(1)2(1); 2.1 Å; both purified
T2 sequence: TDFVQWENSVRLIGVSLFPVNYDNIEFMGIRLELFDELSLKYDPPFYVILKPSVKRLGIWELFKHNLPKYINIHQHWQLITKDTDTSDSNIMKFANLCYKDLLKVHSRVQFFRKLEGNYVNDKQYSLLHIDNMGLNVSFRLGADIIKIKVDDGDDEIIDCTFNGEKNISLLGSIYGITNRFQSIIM

[4] = molecular target: T3, Ctf19 (K. lactis, full length) (Kluyveromyces lactis) (UniProt Q6CRN7); assay: native MS; nanoflow spectra and tandem mode with collision-induced dissociation in the gas phase (argon); subassemblies stripped of subunits; both purified
T3 sequence: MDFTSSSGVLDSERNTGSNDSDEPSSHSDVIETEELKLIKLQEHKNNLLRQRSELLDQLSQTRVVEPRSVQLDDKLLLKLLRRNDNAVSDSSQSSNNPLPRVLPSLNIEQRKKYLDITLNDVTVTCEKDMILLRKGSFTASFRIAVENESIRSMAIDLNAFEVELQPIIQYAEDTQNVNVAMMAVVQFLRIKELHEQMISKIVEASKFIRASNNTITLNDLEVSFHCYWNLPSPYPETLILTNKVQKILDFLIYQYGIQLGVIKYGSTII

[5] = molecular target: T4, Mcm21 (K. lactis, full length) (Kluyveromyces lactis) (UniProt Q6CVQ9); assay: as above
T4 sequence: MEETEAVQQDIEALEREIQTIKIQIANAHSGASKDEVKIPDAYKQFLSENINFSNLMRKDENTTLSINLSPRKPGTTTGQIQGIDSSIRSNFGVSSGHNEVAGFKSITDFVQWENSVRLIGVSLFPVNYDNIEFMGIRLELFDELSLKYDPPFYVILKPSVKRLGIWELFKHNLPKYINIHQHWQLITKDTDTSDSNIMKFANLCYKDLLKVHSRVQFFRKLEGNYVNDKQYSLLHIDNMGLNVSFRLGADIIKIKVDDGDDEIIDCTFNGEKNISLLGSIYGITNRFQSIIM

Binder | binding [4] | binding [5] | also measured
Okp1_229-383 (K. lactis) (domain or fragment, Kluyveromyces lactis, UniProt Q6CJY0 229-383, looked up, also called Okp1 variant with segments 1, 2 and 3; source: E. coli BL21 Rosetta 2(DE3)pLysS, co-expressed with Ctf19_D-RWD and Mcm21_D-RWD, purified) DNLNMEYIYAKGESIKKRYKSELDRAEAIERQLIREEEHLKSLQEKGETQAKKRKQVLSKELSELSKTMHPSLSVALSNTFGLIKDDKMSNEIYQQDKIDFNLKLKTDFSKPLISEKEENSLNGLTNAMDNNRELVNEIFGKISALLQPKKNSNE |  |  | binding [1]: binds
Okp1_295-383 (K. lactis) (domain or fragment, Kluyveromyces lactis, UniProt Q6CJY0 295-383, looked up, source: E. coli BL21 Rosetta 2(DE3)pLysS, co-expressed with Ctf19 and Mcm21 versions, purified) KTMHPSLSVALSNTFGLIKDDKMSNEIYQQDKIDFNLKLKTDFSKPLISEKEENSLNGLTNAMDNNRELVNEIFGKISALLQPKKNSNE |  |  | binding [2]: binds
Ctf19 D-RWD domain (K. lactis Ctf19 residues 107-270) (domain or fragment, UniProt Q6CRN7 107-270) NIEQRKKYLDITLNDVTVTCEKDMILLRKGSFTASFRIAVENESIRSMAIDLNAFEVELQPIIQYAEDTQNVNVAMMAVVQFLRIKELHEQMISKIVEASKFIRASNNTITLNDLEVSFHCYWNLPSPYPETLILTNKVQKILDFLIYQYGIQLGVIKYGSTII |  |  | binding [3]: binds
Nkp1 (K. lactis) (natural protein, Kluyveromyces lactis, UniProt Q6CPR4 1-210, looked up, Nkp1 of Kluyveromyces lactis; also called non-essential kinetochore protein 1; HisNkp1; source: E. coli BL21 Rosetta 2(DE3)pLysS, purified) MDLESEIIQLVRQNIRPKFPSLNDEQQARLDNALKYDVNYDILKKELVEYIDDWKRNEYYDVLTNIGDLQRLDLGNMLNGDGVSFPKLHSDLANLPRFRLIDNENEMDQSLLHKYDSLRTRLIEKCRAIELIRSATNTDVNYQDINSMLSVVELRQWRDEIQMEWKELAQNLELILKTWPDLTEEKRSKLLQLIDSSSLKSILHIKDNIE | no binding | no binding | 
Nkp2 (K. lactis) (natural protein, Kluyveromyces lactis, UniProt Q6CSR8 1-151, looked up, Nkp2 of Kluyveromyces lactis; also called non-essential kinetochore protein 2; source: E. coli BL21 Rosetta 2(DE3)pLysS, purified) MLHEVLYKHLDGILVSRLYTEDQFVDLFSRTIPESNTVIASQLYKSYEENDQRIIEKIDKLIDNKLSLIRVELEREQIEDSISLEEVNKLLHSIDDMLQQHLNQLNIELDNKNTKLLKYAMELSDIEAIDTSMYDNVAKLITDMETNQPSS | no binding | no binding | 

From paper PMC5709738 (The EMBO Journal, 2017)
